# This is one part of the list. The data describe in vitro nicking of single-stranded DNA by Rep domains for 1 h at 37 °C with 3 µM enzyme; only the middle of the 90-letter strands is printed. The score is log2 (uncut reads / reads without enzyme); the lower, the more was cut; hits are not called. Counts are relative to all reads; uncut strands gain when others are lost, and binding without cutting may add a little.
# Columns and labels:
# Assay in all cases: uncleaved DNA left, log2 of reads against the no-enzyme library (log2 ratio); higher = less cleavage (more negative = more Rep cleavage of the k-mer); sequences stand for … in CTCGTCCG…ACCGGAGA
# [1] = system: T1, Rep nickase domain of Muscovy duck circovirus
# T1 sequence (protein, residues 1-111, tag omitted): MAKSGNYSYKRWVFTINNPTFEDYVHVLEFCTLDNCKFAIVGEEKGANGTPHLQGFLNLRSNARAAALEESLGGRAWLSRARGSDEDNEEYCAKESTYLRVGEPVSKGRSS
# Procedure: (§1)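 A pool of 90-nt single-stranded DNAs with seven random bases just before the constant AC of the nick site (name = the seven bases) was cut by 3 µM recombinant His6-SUMO-tagged Rep nickase domain (300 nM DNA, 50 mM HEPES pH 8.0, 50 mM NaCl, 1 mM MnCl2, 1 h, 37 °C, three replicates). Uncut DNA was amplified and sequenced.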
# [2] = system: T2, Rep nickase domain of banana bunchy top virus
# T2 sequence (protein, residues 1-94, tag omitted): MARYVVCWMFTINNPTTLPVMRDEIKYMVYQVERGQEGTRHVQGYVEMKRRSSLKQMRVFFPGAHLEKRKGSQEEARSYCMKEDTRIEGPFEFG
# Procedure: as §1
# [3] = system: T3, Rep nickase domain of cabbage leaf curl virus
# T3 sequence (protein, residues 1-116, tag omitted): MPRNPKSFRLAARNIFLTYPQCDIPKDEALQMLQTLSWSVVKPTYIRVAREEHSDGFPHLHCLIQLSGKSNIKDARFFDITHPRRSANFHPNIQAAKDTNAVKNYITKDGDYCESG
# Procedure: as §1
# [4] = system: T4, Rep nickase domain of chickpea chlorotic dwarf virus
# T4 sequence (protein, residues 1-124, tag omitted): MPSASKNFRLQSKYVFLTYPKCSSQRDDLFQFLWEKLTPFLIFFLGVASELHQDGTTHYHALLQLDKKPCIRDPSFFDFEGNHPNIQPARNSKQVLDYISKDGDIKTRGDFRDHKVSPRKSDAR
# Procedure: as §1
# [5] = system: T5, Rep nickase domain of faba bean necrotic yellows virus
# T5 sequence (protein, residues 1-98, tag omitted): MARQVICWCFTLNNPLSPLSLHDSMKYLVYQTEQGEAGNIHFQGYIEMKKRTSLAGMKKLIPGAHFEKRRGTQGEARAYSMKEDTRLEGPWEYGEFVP
# Procedure: as §1
# [6] = system: T6, Rep nickase domain of maize striate mosaic virus
# T6 sequence (protein, residues 1-117, tag omitted): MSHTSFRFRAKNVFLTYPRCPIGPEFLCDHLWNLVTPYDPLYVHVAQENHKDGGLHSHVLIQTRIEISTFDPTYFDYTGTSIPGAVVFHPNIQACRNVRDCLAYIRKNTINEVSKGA
# Procedure: as §1
# [7] = system: T7, Rep nickase domain of porcine circovirus 2
# T7 sequence (protein, residues 2-116, tag omitted): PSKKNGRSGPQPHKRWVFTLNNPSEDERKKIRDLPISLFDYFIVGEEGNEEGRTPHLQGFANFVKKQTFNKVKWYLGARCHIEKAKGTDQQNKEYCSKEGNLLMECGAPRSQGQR
# Procedure: as §1
# [8] = system: T8, Rep nickase domain of tomato yellow leaf curl virus
# T8 sequence (protein, residues 1-136, tag omitted): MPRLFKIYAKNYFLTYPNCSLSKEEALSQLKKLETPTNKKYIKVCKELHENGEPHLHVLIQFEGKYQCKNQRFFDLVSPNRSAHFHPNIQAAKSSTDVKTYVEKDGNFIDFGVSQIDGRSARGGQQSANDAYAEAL
# Procedure: as §1
# [9] = system: T9, Rep nickase domain of wheat dwarf virus
# T9 sequence (protein, residues 1-137, tag omitted): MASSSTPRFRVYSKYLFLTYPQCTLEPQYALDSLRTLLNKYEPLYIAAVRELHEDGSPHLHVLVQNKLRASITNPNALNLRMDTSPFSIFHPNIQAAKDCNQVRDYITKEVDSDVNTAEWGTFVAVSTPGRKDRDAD
# Procedure: as §1
Sequence,uncleaved DNA left (log2) [1],uncleaved DNA left (log2) [2],uncleaved DNA left (log2) [3],uncleaved DNA left (log2) [4],uncleaved DNA left (log2) [5],uncleaved DNA left (log2) [6],uncleaved DNA left (log2) [7],uncleaved DNA left (log2) [8],uncleaved DNA left (log2) [9]
TCAGTTC,-0.104,0.0163,0.0848,-1.01,0.00671,-0.46,-0.0508,0.0572,-0.107
CCGGCTA,-0.109,-0.196,0.112,-0.153,-0.0988,0.2,-0.0703,-0.135,-0.0652
GCAGAAG,-0.0578,0.0505,-0.737,-0.475,-0.0552,-0.942,0.153,0.048,-0.0254
ACCCAAC,-0.114,-0.0576,-0.187,-1.45,0.0649,-0.806,-0.105,-0.188,0.00383
CCGCTCT,0.0649,-0.00293,-0.0488,-1.44,0.152,-0.337,-0.171,-0.152,0.0262
CAACACA,0.019,0.144,-0.389,-2.25,0.0704,-0.696,-0.1,0.0378,0.115
CTTGGCC,-0.00458,-0.0156,-0.298,-0.534,-0.074,-0.801,-0.0908,-0.0429,-0.0491
ACATTTC,0.0221,0.00692,-0.235,-0.18,-0.025,-1.05,0.176,0.033,0.0545
ACTAGCC,0.0304,-0.0426,-0.268,-0.353,0.142,-0.755,0.158,0.0138,0.0621
GAGTTTC,-0.246,-0.109,0.0935,0.364,-0.223,0.948,-2.82,0.00512,-0.0586
TTGCACG,-0.179,-0.137,-1.12,-0.833,0.0131,-1.37,-0.0877,-0.162,-0.203
TCCAAGT,0.127,0.00401,0.311,-0.194,0.0489,-0.338,-0.0618,0.0415,0.075
AGGATAG,0.102,0.0885,-0.147,0.141,0.00193,-0.665,0.285,0.0833,0.0818
GGATAGT,-0.249,0.0828,0.762,1.57,0.116,2.06,-0.79,0.115,0.167
AGACTGC,-0.0632,-0.0235,0.0236,0.638,-0.0367,1.22,0.129,-0.0999,0.156
TTAGTGG,0.086,0.0632,0.359,0.643,0.0891,0.537,0.145,-0.0105,0.099
GAGCTGA,0.158,0.142,0.346,1.58,0.0134,1.71,0.147,-0.0272,0.141
GCTCAAT,0.278,0.191,0.331,0.6,0.18,0.574,0.127,0.308,0.255
GCCGGCG,0.15,0.125,-0.364,0.851,0.111,0.252,0.248,0.0693,0.0814
GATGACG,0.0858,0.0748,-0.458,-0.285,0.0417,-0.792,0.194,-0.0492,0.0678
TCAGCTT,-0.114,-0.055,0.412,0.913,-0.149,1.41,-0.0073,-0.0942,-0.0274
GGCCCGA,0.0054,0.0988,0.568,1.27,-0.169,1.61,0.0618,-0.0108,0.018
TTACCGA,-0.0132,-0.0187,-0.336,-1.76,0.113,-0.928,-0.27,0.00942,-0.00687
GCGTCAG,0.0336,0.157,-0.0434,0.422,-0.0216,-0.0461,0.136,0.114,0.0655
TAAATGT,0.00623,-0.101,-3.76,-3.08,0.149,-2.32,-0.473,-0.0139,-3.59
TCTTTCT,-1.7,-0.242,-0.191,-2.23,-0.161,-0.921,-2.78,-0.184,-0.228
AGGAGCC,0.00511,-0.0877,0.0823,0.332,-0.0569,-0.175,-0.0204,-0.0548,0.0874
GACGCGC,-0.167,-0.168,-0.682,-0.236,-0.0571,-0.892,0.0366,-0.0823,-0.317
TGACTGT,-0.00656,-0.045,0.0595,0.606,0.0402,1.67,0.0101,0.00915,0.0654
GCAATCT,0.0464,0.0274,-0.233,-1.19,-0.0113,-0.159,-0.135,-0.0311,0.0498

# From the supplement of paper PMC7826260
